# Assay results as given in PubChem BioAssay AID1347120 (National Center for Advancing Translational Sciences (NCATS), 2019).
# The campaign covered roughly 390,000 compounds. About 930 (0.24%) were called active. This list was built around the results that the source calls inconclusive (neither active nor inactive); the mix of calls is not that of the screen. The call rests on the fitted dose curve; in most records, active means well fitted activation curve with a large enough effect; inconclusive means small, poorly fitted or top-dose-only effect; inactive means no such curve, though single readings can be large or run the other way. Where the call is inconclusive, the potency comes from a doubtful curve fit.
# Test: qHTS for Suppressors of FUS Proteinopathy: Primary screen using FUS-linked yeast assay; further: nearly all actives have a fitted effect of over 55% in size;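 on growth rescue (activation): plate controls were DMSO vehicle for no effect and reference control for full effect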
# Conditions: S. cerevisiae FUS-expressing, OD600, 24 h; Potency: growth rescue; growth rescue (activation): at 76.6 µM (top of the series)
# Summary of the method: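 Yeast expressing FUS under galactose induction, OD 0.005 in 2% galactose medium; compounds in a dilution series, 24 h at 30C. Growth rescue by absorbance at 600 nm; CP55940 positive control, DMSO negative.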
# Potency means the concentration at half of the fitted maximal effect; tags describe the fitted curve by direction and shape.
Structure (SMILES),Potency,growth rescue (activation)
COc1cccc2c1CCC1=CC(=O)CCC12C (stereo not given),"inconclusive: 12.6 µM [activator, partial curve, poor fit]",
O=C1CNCc2[nH]c3ccccc3c2N1c1ccccc1,"inconclusive: 50.1 µM [activator, partial curve, poor fit]",
O=C1CC(c2ccccc2)CC(O)=C1C=Nc1cccc(Cl)c1 (stereo not given),"inconclusive: 11.2 µM [activator, single point]",
COc1ccc(C(=O)Nc2ccccc2N2CCN(C(=O)c3ccccc3)CC2)cc1Br,"inconclusive: 10 µM [activator, partial curve]",
CCOc1ccc(C2C=C(c3ccc(C)cc3)Nc3nnnn32)cc1 (stereo not given),"inconclusive: 7.94 µM [activator, partial curve]",
CCOc1ccccc1NC(c1nnc(-c2ccccc2)o1)c1ccc(F)cc1Cl (stereo not given),inactive,
CCN(C(=O)c1cc2c(=O)oc3ccc(C)cc3c2s1)c1ccccc1F,inactive,
CCCCSCCCNC(=O)C1CCC(CNS(=O)(=O)c2c(C)cc(C)cc2C)CC1 (stereo not given),"inconclusive: 10 µM [activator, partial curve, poor fit]",
Cc1nc(SCC(=O)N(C)C2CCS(=O)(=O)C2)c2ccccc2n1 (stereo not given),"inconclusive: 11.2 µM [activator, single point]",
CCOC(=O)c1c(NC(=O)CSc2nnc(CNc3ccc(OC)cc3)n2C)sc(C)c1C,"inconclusive: 28.2 µM [activator, single point]",
O=C(NCc1cccs1)C1C(=O)Nc2ccccc2C(=O)N1C1CCCC1 (stereo not given),inactive,
O=C1CC(c2cccc(Cl)c2)c2cc3c(cc2N1)CCC3 (stereo not given),inactive,
CCOC(=O)C1=C(C)Nc2sc(C(=O)c3ccc(OC)cc3)c(N)c2C1c1ccc(C(=O)OC)cc1 (stereo not given),"inconclusive: 12.6 µM [activator, partial curve]",
CCCCNc1nc2c(c(=O)n(C)c(=O)n2C)n1CCC,inactive,
O=C(OCC(=O)N1CCN(c2ccccc2)CC1)c1cccc(Cl)c1,"inconclusive: 11.2 µM [activator, single point]",
Cc1sc2nc(SCC(=O)c3ccc(O)c(O)c3)n(C)c(=O)c2c1C,"inconclusive: 22.4 µM [activator, partial curve, poor fit]",
CCCCn1c(-c2ccccc2)cnc1SCC(=O)NCCc1ccc(OC)c(OC)c1,"inconclusive: 12.6 µM [activator, partial curve]",
CN(Cc1ccc(OC(F)F)cc1)C(=O)c1ccc(S(=O)(=O)N(C)c2ccccc2)cc1,"inconclusive: 44.7 µM [activator, single point]",
CCn1c(SC(C)C(=O)NC2CCCc3ccccc32)nnc1-c1cccs1 (stereo not given),,inconclusive: 70.5% [activator]
Cc1nc2c3ccccc3nc(NNC(=O)CCC(=O)N3CCN(c4cccc(C(F)(F)F)c4)CC3)n2n1,"inconclusive: 31.6 µM [activator, single point]",
C#CCOCCOCCOCCNc1nc(N2CCN(C(=O)[C@H]([C@@H](C)CC)n3cc([C@@H](N)Cc4ccc(O)cc4)nn3)CC2)nc(N2CCN(C(=O)[C@H](Cc3cc4ccccc4[nH]3)n3cc([C@@H](N)CC(C)C)nn3)CC2)n1,"inconclusive: 12.6 µM [activator, partial curve]",
COc1ccccc1N1CCN(C(=O)CSc2nnc(NC(=O)C3CC3)s2)CC1,"inconclusive: 14.1 µM [activator, partial curve, poor fit]",

Structure (SMILES),Potency,growth rescue (activation)
Cc1ccc(NC(=O)Cn2c(SCc3ccc(F)cc3)nc3cccnc32)cc1F,inactive,
CCCCOCCCNC(=O)C[C@@H]1C(=O)N(Cc2ccc(OC)cc2)C2=CCN(C(=O)OC(C)(C)C)C[C@]21C(=O)OCC,"inconclusive: 12.6 µM [activator, partial curve]",
CC(Cc1ccc(O)c(O)c1)C(C)Cc1ccc(O)c(O)c1 (stereo not given),inactive,
CCOC(=O)c1cc(-c2ccccc2)n(-c2cccc(C(=O)Nc3cccc(C(C)=O)c3)c2)c1C,"inconclusive: 25.1 µM [activator, single point]",
O=C(c1cccnc1)N1N=C(c2cccs2)CC1c1ccc(F)cc1 (stereo not given),inactive,
COc1ccc(S(=O)(=O)N2CCOCC2)cc1NC(=O)C1CCCCN1S(=O)(=O)c1ccccc1 (stereo not given),"inconclusive: 31.6 µM [activator, single point]",
CSc1nnc(Cc2sc(-c3ccccc3)nc2-c2ccccc2)o1,"inconclusive: 0.891 µM [activator, full curve, poor fit]",
CC1CCN(C(=O)C2CCN(S(=O)(=O)c3cc(Cl)ccc3Cl)CC2)CC1,inactive,
CCOc1ccc(CN(C)C(=O)CCc2ccc(S(=O)(=O)N3CCCCCC3)cc2)cc1,"inconclusive: 28.2 µM [activator, single point]",
Cc1ccc2c(C(=O)CN3CCN(C(=O)c4ccco4)CC3)c(C)[nH]c2c1,"inconclusive: 3.55 µM [activator, full curve]",
O=S(=O)(Nc1cccc(-c2ccc(N3CCCC3)nn2)c1)c1ccc(F)c(C(F)(F)F)c1,inactive,
CS(=O)(=O)Nc1ccc(C2=NN(S(=O)(=O)c3ccccc3)C(c3cccs3)C2)cc1 (stereo not given),"inconclusive: 50.1 µM [activator, single point]",
CCCc1cc(C(=O)Cc2nc3ccccc3s2)c(O)cc1O,"inconclusive: 7.08 µM [activator, full curve]",
O=C(CSc1nnc(-c2ccc(O)cc2)o1)Nc1ccccc1Br,inactive,
Cc1nc(Sc2nnnn2-c2ccccc2)c(C#N)c(C)c1C,inactive,
CCOC(=O)N1CCN(C(=O)c2cccc(-n3c(=S)[nH]c4cc(Cl)ccc4c3=O)c2)CC1,"inconclusive: 28.2 µM [activator, partial curve, poor fit]",
Cn1nnc2c[n+](CC(=O)c3ccc4ccccc4c3)cc(Br)c21,"inconclusive: 17.8 µM [activator, single point]",
Cc1nn(CC(=O)Nc2ccccc2F)c(=O)c2c(C)n(-c3ccc(Cl)cc3)nc12,inactive,
OC(c1ccc(F)cc1)c1nc(-c2ccncc2)cs1 (stereo not given),inactive,
CCOC(=O)c1sc(SCc2ccccc2)c2c1CC(C)(C)CC2=O,"inconclusive: 31.6 µM [activator, single point]",
O=C(CSc1nnc(-c2ccccc2)n1Cc1ccco1)Nc1ccc(S(=O)(=O)N2CCCC2)cc1,"inconclusive: 22.4 µM [activator, single point]",
CC(C)(C)c1ccc(C(=O)O[C@H]2[C@H](Cc3ccccc3)NS(=O)(=O)[C@H]3C[C@@H]4C=C[C@]23O4)cc1,"inconclusive: 25.1 µM [activator, single point]",

Structure (SMILES),Potency,growth rescue (activation)
CCOc1ccc(-c2csc(/C(C#N)=C/c3ccc(Br)cc3)n2)cc1,inactive,
O=C(O)c1cc(-c2ccc(/C=N/NC(=S)Nc3ccccc3)o2)ccc1Cl,"inconclusive: 50.1 µM [activator, single point]",
COc1cccc(NC(=O)CN2CCSc3ccccc32)c1,inactive,
CCOc1cc(N2CCOCC2)c(OCC)cc1NC(=O)COC(=O)c1ccccc1C,inactive,
CC(=O)N1CCC(N2CCN(Cc3ccc(C)cc3)C(CCO)C2)CC1 (stereo not given),inactive,
COc1ccc(S(=O)(=O)Nc2ccc3c(c2)n(C)c(=O)n3C)cc1OC,,inconclusive: -71.8% [activator]
CCN(CC)c1ccc(/C=N/NC(=O)Cc2nnc(NC(=O)Nc3ccccc3)s2)cc1,active: 17.8 µM,
COc1ccc(Br)cc1CNc1ccc(O)cc1,"inconclusive: 14.1 µM [activator, partial curve, poor fit]",
COC(=O)c1cccc(S(=O)(=O)N(Cc2ccco2)Cc2cc3cc(OC)c(OC)cc3[nH]c2=O)c1,inactive,
O=C1/C(=N\S(=O)(=O)c2cccs2)C([n+]2cccc(Cc3ccccc3)c2)=C([O-])c2ccccc21,inactive,
Cc1ccccc1OCC(=O)Nc1ccc(N2CCN(C(=O)C(C)C)CC2)c(Cl)c1,"inconclusive: 22.4 µM [activator, partial curve, poor fit]",
COc1ccc(OC)c(NC(=O)CN2C(=O)CCc3cc(S(=O)(=O)N4CCCCC4)ccc32)c1,"inconclusive: 35.5 µM [activator, single point]",
Cc1cccc(NC(=O)c2nc[nH]c2C(=O)N[C@@H](Cc2ccccc2)C(=O)OC(C)(C)C)c1,"inconclusive: 12.6 µM [activator, partial curve]",
O=C(NC1CCCCC1)c1ccc2c(c1)N(Cc1ccc(Cl)cc1)C(=O)c1ccccc1S2(=O)=O,"inconclusive: 25.1 µM [activator, single point]",
COc1ccc(C(=O)Nc2ccc(C3(C#N)CCCC3)cc2)cc1OC,"inconclusive: 31.6 µM [activator, single point]",
CC12CCC(=O)N1C(C(=O)Nc1cccc(S(=O)(=O)N3CCCCCC3)c1)CS2 (stereo not given),"inconclusive: 15.8 µM [activator, partial curve, poor fit]",
COc1ccc(C(C(=O)N(C)C2CCCC2)N(Cc2ccc(F)cc2)C(=O)c2csc(N3CCOCC3)n2)cc1OC (stereo not given),"inconclusive: 14.1 µM [activator, partial curve, poor fit]",
CCCN(C(=O)c1ccco1)c1nnc(-c2ccccc2C)s1,inactive,
CCc1cccc(NC(=O)Cn2nc(-c3cc(C)ccc3C)ccc2=O)c1,"inconclusive: 35.5 µM [activator, single point]",
CCCCCCC(=O)Nc1ccc(C(=O)N/N=C/c2cccnc2)cc1,active: 28.2 µM,
O=c1cc(CSc2n[nH]c(-c3ccccc3)n2)[nH]c2ccccc12,inactive,
